Assay [1] addresses 72 kDa type IV collagenase (Homo sapiens, UniProt P08253).
Assay [2] addresses T1, Interstitial collagenase (Homo sapiens, UniProt P03956).
T1 sequence (P03956 whole entry): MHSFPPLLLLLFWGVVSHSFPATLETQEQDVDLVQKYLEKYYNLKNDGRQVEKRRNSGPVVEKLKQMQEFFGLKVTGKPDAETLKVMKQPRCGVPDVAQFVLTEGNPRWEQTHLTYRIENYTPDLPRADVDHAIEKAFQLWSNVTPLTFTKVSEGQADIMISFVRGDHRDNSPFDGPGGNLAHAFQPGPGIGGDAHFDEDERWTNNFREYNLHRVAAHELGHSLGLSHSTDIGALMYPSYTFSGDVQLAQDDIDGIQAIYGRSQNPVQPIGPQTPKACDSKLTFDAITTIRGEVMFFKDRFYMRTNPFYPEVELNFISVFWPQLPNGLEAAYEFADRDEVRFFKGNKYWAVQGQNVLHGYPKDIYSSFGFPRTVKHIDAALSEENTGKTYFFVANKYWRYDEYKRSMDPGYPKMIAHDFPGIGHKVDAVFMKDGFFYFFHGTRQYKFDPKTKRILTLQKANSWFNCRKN

In assay [3] the target is T2, Disintegrin and metalloproteinase domain-containing protein 17 (Homo sapiens, UniProt P78536). Format: functional, cell-based, THP-1.
Assay [4] deals with T2, Disintegrin and metalloproteinase domain-containing protein 17.

Molecules are shown by their SMILES.

For `COCCOc1cc(CCC[C@H]2C(=O)N[C@H](C(=O)c3ccccc3)Cc3ccc(cc3)OCCCC[C@@H]2C(=O)NO)cc(OC)c1`, in assay [1], the IC50 (usually the concentration that gives 50% inhibition) was found to be 4000 nM.

Turning to `CNC(=O)[C@@H]1Cc2ccc(cc2)OCCCC[C@H](C(=O)NO)[C@@H](CCCc2ccc(OC)c(OC)c2)C(=O)N1`, the midpoint of inhibition in assay [2], the IC50, lay at 230 nM.

As to `CC1(C)SCCN(S(=O)(=O)c2ccc(Oc3cccnc3)cc2)[C@H]1C(=O)NO`, the values for the half-inhibitory concentration (IC50) in assay [3], in assay [4] and in assay [1] were 8.6 µM, 7.9 nM and 0.048 nM, respectively.

For `CNC(=O)[C@@H]1Cc2ccc(cc2)OCCCC[C@H](C(=O)NO)[C@@H](CCCc2ccc(Cl)cc2)C(=O)N1`, in assay [2], the concentration for half-maximal inhibition (IC50) was determined as 2.3 nM.

Consider `COc1cc(Oc2ccc(S(=O)(=O)CC(C)C(=O)NO)cc2)cc(OC)c1OC` (configuration not stated), for which the IC50 worked out at 41 µM in assay [3] and 6.5 nM in assay [4].

As to `CNC(=O)[C@@H]1Cc2ccc(cc2)OCCCC[C@H](C(=O)NO)[C@@H](CCCc2cc(OC)c(OC)c(OC)c2)C(=O)N1`, in assay [2], the IC50 worked out at 2300 nM.

Compound `O=C(c1ccccc1)[C@@H]1Cc2ccc(cc2)OCCCC[C@H](C(=O)NO)[C@@H](CCCc2cc(Br)cc(Br)c2)C(=O)N1` displayed an IC50 in assay [2] of 9200 nM.

In assay [2], `CCOc1ccc(CCC[C@H]2C(=O)N[C@H](C(=O)NC)Cc3ccc(cc3)OCCCC[C@@H]2C(=O)NO)cc1` returned an IC50 of 6.8 nM.

`CNC(=O)[C@@H]1Cc2ccc(cc2)OCCCC[C@H](C(=O)NO)[C@@H](CCCc2cccc3ccccc23)C(=O)N1`: the IC50 amounted to 0.44 µM in assay [3], 28 nM in assay [2], 6 nM in assay [4] and 0.23 nM in assay [1].

For the compound `CNC(=O)[C@@H]1Cc2ccc(cc2)OCCCC[C@H](C(=O)NO)[C@@H](CCCc2cc(OC)ccc2OC)C(=O)N1`, in assay [2], the IC50 amounted to 140 nM.

`Cc1ccc(CCC[C@H]2C(=O)N[C@H](C(=O)c3ccccc3)Cc3ccc(cc3)OCCCC[C@@H]2C(=O)NO)cc1`: in assay [2], the IC50 was 320 nM.

The values above are taken from ChEMBL document CHEMBL1133837, “Discovery of selective hydroxamic acid inhibitors of tumor necrosis factor-alpha converting enzyme” (Bioorg Med Chem Lett, 2001).
